The results in this text go back to patent US20230135471A1 (INTEGRATED DNA TECHNOLOGIES, published 2023).

Numbering of substitutions follows the chain as printed. Names may count otherwise.

B1: T7M (SM3) (designed binder)
Ubv: MHHHHHHGGSGMLIFVKMLTGKTITLEVEPSDTIENVKAKIQDKEGIPPDQQRLAFAGKSLEDGRTLSDYNILKDSKLHPLLRLR
B2: Q31F (SM12) (designed binder)
Ubv: B1 Ubv with M18T, Q42F
B3: K33H (SM14) (designed binder)
Ubv: B1 Ubv with M18T, K44H
B4: K48T (SM20) (designed binder)
Ubv: B1 Ubv with M18T, K59T
B5: K33S (SM13) (designed binder)
Ubv: B1 Ubv with M18T, K44S
B6: Q31W (SM10) (designed binder)
Ubv: B1 Ubv with M18T, Q42W
B7: P38L (SM16) (designed binder)
Ubv: B1 Ubv with M18T, P49L
B8: E18M (SM7) (designed binder)
Ubv: B1 Ubv with M18T, E29M
B9: E16M (SM6) (designed binder)
Ubv: B1 Ubv with M18T, E27M
B10: R54Y (SM21) (designed binder)
Ubv: B1 Ubv with M18T, R65Y
B11: N25V (SM8) (designed binder)
Ubv: B1 Ubv with M18T, N36V
B12: Q31C (SM11) (designed binder)
Ubv: B1 Ubv with M18T, Q42C
B13: R42W (SM17) (designed binder)
Ubv: B1 Ubv with M18T, R53W
B14: T12M (SM4) (designed binder)
Ubv: B1 Ubv with M18T, T23M
B15: A44T (SM18) (designed binder)
Ubv: B1 Ubv with M18T, A55T
B16: V26I (SM9) (designed binder)
Ubv: B1 Ubv with M18T, V37I
B17: L69Y (CM374) (designed binder)
Ubv: MHHHHHHGGSGYLIFVRMLTGKMIELEVEPSDTIENIKAKIQDHEGIPLDQQRLTFQGKLLEDGRTLSDYNLLIDPKKMYVLRMQ
B18: CM455, His-tagged (designed binder)
chain: B17 Ubv with L13M, L73T, D75S, K77E, Y80A
B19: P62R (CM442) (designed binder)
Ubv: B17 Ubv with L13M, L73R, D75S, K77E, Y80A
B20: P62Y (CM457) (designed binder)
Ubv: B17 Ubv with L13M, L73Y, D75S, K77E, Y80A
B21: P62E (CM446) (designed binder)
Ubv: B17 Ubv with L13M, L73E, D75S, K77E, Y80A
B22: P62K (CM451) (designed binder)
Ubv: B17 Ubv with L13M, L73K, D75S, K77E, Y80A
B23: P62W (CM456) (designed binder)
Ubv: B17 Ubv with L13M, L73W, D75S, K77E, Y80A
B24: P62V (CM458) (designed binder)
Ubv: B17 Ubv with L13M, L73V, D75S, K77E, Y80A
B25: P62D (CM444) (designed binder)
Ubv: B17 Ubv with L13M, L73D, D75S, K77E, Y80A
B26: P62S (CM454) (designed binder)
Ubv: B17 Ubv with L13M, L73S, D75S, K77E, Y80A
B27: P62F (CM453) (designed binder)
Ubv: B17 Ubv with L13M, L73F, D75S, K77E, Y80A
B28: P62G (CM448) (designed binder)
Ubv: B17 Ubv with L13M, L73G, D75S, K77E, Y80A
B29: P62N (CM443) (designed binder)
Ubv: B17 Ubv with L13M, L73N, D75S, K77E, Y80A
B30: P62H (CM449) (designed binder)
Ubv: B17 Ubv with L13M, L73H, D75S, K77E, Y80A
B31: P62I (CM450) (designed binder)
Ubv: B17 Ubv with L13M, L73I, D75S, K77E, Y80A
B32: P62Q (CM447) (designed binder)
Ubv: B17 Ubv with L13M, L73Q, D75S, K77E, Y80A
B33: P62A (CM441) (designed binder)
Ubv: B17 Ubv with L13M, L73A, D75S, K77E, Y80A
B34: P62C (CM445) (designed binder)
Ubv: B17 Ubv with L13M, L73C, D75S, K77E, Y80A
B35: P62M (CM452) (designed binder)
Ubv: B17 Ubv with L13M, L73M, D75S, K77E, Y80A
B36: V70N (CM378) (designed binder)
Ubv: B17 Ubv with Y80L, V81N
B37: V70Q (CM382) (designed binder)
Ubv: B17 Ubv with Y80L, V81Q
B38: V70D (CM379) (designed binder)
Ubv: B17 Ubv with Y80L, V81D
B39: V70W (CM392) (designed binder)
Ubv: B17 Ubv with Y80L, V81W
B40: V70G (CM383) (designed binder)
Ubv: B17 Ubv with Y80L, V81G
B41: V70M (CM387) (designed binder)
Ubv: B17 Ubv with Y80L, V81M
B42: V70T (CM391) (designed binder)
Ubv: B17 Ubv with Y80L, V81T
B43: V70A (CM376) (designed binder)
Ubv: B17 Ubv with Y80L, V81A
B44: V70I (CM385) (designed binder)
Ubv: B17 Ubv with Y80L, V81I
B45: V70R (CM377) (designed binder)
Ubv: B17 Ubv with Y80L, V81R
B46: V70E (CM381) (designed binder)
Ubv: B17 Ubv with Y80L, V81E
B47: V70Y (CM393) (designed binder)
Ubv: B17 Ubv with Y80L, V81Y
B48: V70F (CM388) (designed binder)
Ubv: B17 Ubv with Y80L, V81F
B49: V70S (CM390) (designed binder)
Ubv: B17 Ubv with Y80L, V81S
B50: V70H (CM384) (designed binder)
Ubv: B17 Ubv with Y80L, V81H
B51: V70C (CM380) (designed binder)
Ubv: B17 Ubv with Y80L, V81C
B52: V70P (CM389) (designed binder)
Ubv: B17 Ubv with Y80L, V81P
B53: V70K (CM386) (designed binder)
Ubv: B17 Ubv with Y80L, V81K

One test deals with MBP tagged 53BP1 fragment (a.a. 1484-1603). The experiment in a line: BLI, fold change Ka of Ubv/Ka of i53.
Turning to B1, the binding result is recorded as “binds”.
On the same count and under the same terms, the result for B2 reads “binds”; that for B3, “binds”; that for B4, “binds”.
The same measure, in the same setting: with B5 the entry was “binds”.
Still for that read-out and setting: with B6 the entry was “binds”; with B7, “binds”; with B8, “binds”.
Regarding B9, the binding result is given as “binds”.
Turning to B10, the binding result was “binds”.
Still for that read-out and setting: with B11 the entry was “binds”; with B12, “binds”.
The same measure, in the same setting: with B13 the entry was “binds”; with B14, “binds”; with B15, “binds”.
Still for that read-out and setting: with B16 the entry was “binds”.

The target is the same in a further test. The experiment in a line: BLI, fold change Ka of Ubv/Ka of CM203.
Regarding B17, the binding result is listed as “binds”.

For the next test the target is unchanged. Put plainly: BLI, fold change Ka of Ubv/Ka of CM429. On the technique in general: Biolayer interferometry detects binding as a change in optical thickness at a sensor tip.
B18: the binding result was “binds”.
For B19, the binding result is reported as “binds”.
With B20, the binding result was “binds”.
On the same count and under the same terms, the result for B21 reads “binds”; that for B22, “binds”.
As to B23, the binding result is recorded as “binds”.
Same read-out and setting: the result for B24 reads “binds”; that for B25, “binds”.
Still for that read-out and setting: the result for B26 reads “binds”.
On the same count and under the same terms, with B27 the entry was “binds”; with B28, “binds”.
As to B29, the binding result is recorded as “binds”.
Consider B30, for which the binding result is on record as “binds”.
On the same count and under the same terms, with B31 the entry was “binds”; with B32, “binds”; with B33, “binds”.
Still for that read-out and setting: the result for B34 reads “binds”.
As for B35, the binding result is on record as “binds”.

For the next test the target is unchanged. The experiment in a line: BLI, fold change Ka of Ubv/Ka of CM203 [cont.].
Consider B36, for which the binding result is recorded as “binds”.
Same read-out and setting: the result for B37 reads “binds”; that for B38, “no binding”.
The same measure, in the same setting: with B39 the entry was “binds”; with B40, “binds”; with B41, “binds”.
As to B42, the binding result was “binds”.
Still for that read-out and setting: the result for B43 reads “binds”.
As to B44, the binding result is listed as “binds”.
Take B45: the binding result is “binds”.
On the same count and under the same terms, with B46 the entry was “no binding”.
Consider B47, for which the binding result is on record as “binds”.
Same read-out and setting: the result for B48 reads “binds”.
Consider B49, for which the binding result is recorded as “binds”.
Turning to B50, the binding result is “binds”.
Still for that read-out and setting: the result for B51 reads “binds”; that for B52, “no binding”.
Still for that read-out and setting: with B53 the entry was “binds”.
